# Experimental data taken from the supplement of paper PMC11417369.
# The other results are listed elsewhere or left out.
# Tested on: PfSIP2 AP2 domain 1 (GST-tagged)
# Assay: gcPBM binding intensity (ln(normalized median fluorescence intensity)); higher = stronger DNA binding
# How it was run: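 Using an Agilent 4 × 180k array, primer-extended double-stranded 36-bp intergenic genomic probes and negative controls were exposed for 1 h to GST-fused P. falciparum DNA-binding domains expressed in E. coli. Binding was carried out in 1× PBS with 1% milk, 0.2 mg/ml BSA, 0.5% salmon testes DNA and 0.03% Triton X-100, and protein was detected with Alexa488 anti-GST antibody and a 488 nm scan. Binding intensity is the highest Masliner-normalised natural-log median intensity across replicate spots of either probe orientation.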
row,Sequence,gcPBM binding intensity (ln)
1,ATATATTATTATAACTGTACTTTTTTTGTGGTTAAT [XGTACX_site8266],7.26
2,TATGCGTATATATAAATACACACCAAATGTTAATAT [CACACA_site1713],6.98
3,CCATTTACATTGTGAAGTACTAAAAAAAAATGTAGA [XGTACX_site7882],7.12
4,ACAAGGAATATAAAAAGTACATAAAATACATAAAAA [XGTACX_site1217],7.3
5,TATGGATGTATTCATACATGCACACGTACATATTTA [TGCATGCA_site991],6.94
6,ATAATTTGATGGTTAACACACATATATATTATATAT [CACACA_site2449],7.07
7,ATATAAATATAAATATATATGTATAAATATAAATAT [CACACA_negctrl_site247],6.96
8,TATATATATATATATACACACAAAAAAATAAATTCT [CACACA_site98],8.98
9,ATTTATTTTAATAATTGTACATGTTATTTTATATAT [XGTACX_site2667],7.14
10,TACTTTTCATCTTCTTAACACACAAAAAAAAAAAAA [CACACA_site9290],7.5
11,ATCATTTTTAAAGGAACACACAAAAAAAGTTATAAT [CACACA_site6761],7.06
12,ATACATCAAGGACACACACACACACGCACACGCACA [CACACA_site6310],8.3
13,AAACTATTCACTATAATACATTAGAAGTGAATAAAA [TGCATGCA_negctrl_site498],6.84
14,TTATGATGGTCTTTATAAGGGCACATTAAATTCGGC [TGCATGCA_negctrl_site166],7.31
15,AGAAATTAATCGAGGTGTACGTACATCCAAATATAT [XGTACX_site7650],7.04
16,TATATATAAATATTCAGTACATAGTGCTATTAAGTG [XGTACX_site1979],7.34
17,CCATTATATCTAAGTACACACATTAATTTTTTTTTT [CACACA_site6115],7.14
18,ATATATTTAACAAGATGTACAATTTTATAAAAAATA [XGTACX_site2351],6.97
19,AATAGCAATTTGGGGTGTACACACACCTTATTTAAA [XGTACX_site2234],6.77
20,TGAAAAGGAAATTGTTGTACATATGTTTCTTCCTAA [XGTACX_site3932],6.84
21,TTTTTATAAAAAAATAGTACTCGTCTAATCTTATGT [XGTACX_site8532],7.38
22,CTGTATAAAACCAATGCATGTAAATATATTAATATA [TGCATGCA_site511],7.06

row,Sequence,gcPBM binding intensity (ln)
1,AAAATATATATAAATGCATGCATAATGAAATATATA [TGCATGCA_site39],6.96
2,TTTTAAAAAACAAACACACACGTAGAAAAAAAAAAA [CACACA_site4608],6.99
3,GAAATTTTATTTCGGCGGACAAATGTATACTTTCTT [XGTACX_site4238],6.77
4,GAGAAGACATTACACAGTACCCAGTAACTCTACGGA [XGTACX_site2000],6.66
5,GATTATTATGTCCATGCATGTTAATATATATTAATT [TGCATGCA_site837],7.15
6,AAATTGGGGCTTGTTACACACTTAGTGCGAGTTCTA [CACACA_site582],7.03
7,ACACATATGACAAATAGTACATAAATATATAAATAT [XGTACX_site7141],7.04
8,AATATTCACATTTGTTGTACATTCCTAGTTATATAA [XGTACX_site491],7.2
9,TAAATATATAATTGTAGTACTGTTTTATGTTCATAA [XGTACX_site1020],6.85
10,AAAAAATTTCAAATAACACACACTAATATATATATG [CACACA_site1426],6.89
11,TAAACAGATATATTTTGTACATATTGTATATTTTGT [XGTACX_site713],7.03
12,AAGGAAAATTTTTGGTGTACACAAAAAAATCCAAAA [XGTACX_site3596],7.05
13,ACAAAAAAGTAAAAAGTGCATGTAAAATATAAGTAT [GTGCAC_site9438],8.78
14,TTAATATATTATATTTGTACATATATATATATACAA [XGTACX_site4798],6.99
15,AAATTGTGTTCATCAGCACACACAACATCATGTAAT [CACACA_site8556],6.82
16,AATAAATCTTTTTGTTGTACTAAAAATATTATTAGC [XGTACX_site3335],6.91
17,CGAAAGAAAAAAAGCACACACAGTTTTGAGCAATGA [CACACA_site2109],6.8
18,CTTATTTCCTTTTGTAGTACCTTATAATATATATAA [XGTACX_site8873],7.51
19,TAATAATAGTACTCACATCAAAGTATTATTAAAAAT [TGCATGCA_negctrl_site496],7.04
20,TTCTATTTGTAAAATTGTACAAAATAAATAACAAAA [XGTACX_site1007],7.04
21,GCATTTCTACTAAAAATACACACGATGATACAACGA [CACACA_site1756],7.12
22,TTATATATTTTTTGCACACCAAAAAAGAGAATATTC [CACACA_site2730],7.35
